The values below come from patent US20110319597A1 (CAPHALON AUSTRALIA, published 2011).

In one experiment the target is recombinant human TNFα (human, UniProt P01375 in part). Briefly: cell-based or functional assay.
Experiment [1] has as its target T1, recombinant human TNFα (CytoLab) (human, UniProt P01375 in part).
T1 construct: coated on the ELISA plate at 1 µg/ml; also called Tumour necrosis factor alpha
Briefly: ELISA on coated human TNFα. (In general: ELISA stands for enzyme-linked immunosorbent assay.)

B1: TNFα dAb Fc variant R61H (Fc fusion, name in Kabat numbering)
chain: DIQMTQSPSSLSASVGDRVTITCRASQAIDSYLHWYQQKPGKAPKLLIYSASNLETGVPSHFSGSGSGTDFTLTISSLLPEDFATYYCQQVVWRPFTFGQGTKVEIKRV[human IgG1 Fc with changes left out]
Consider B1, for which the Standardized EC50, L929 neutralization assay (5-point) with recombinant human TNFα was 8.87 µg/mL. Further, in experiment [1], the “A450 (AU)” value was 1.36 AU.

B2: TNFα dAb Fc variant T69L (Fc fusion, name in Kabat numbering)
chain: DIQMTQSPSSLSASVGDRVTITCRASQAIDSYLHWYQQKPGKAPKLLIYSASNLETGVPSRFSGSGSGLDFTLTISSLLPEDFATYYCQQVVWRPFTFGQGTKVEIKRV[human IgG1 Fc with changes left out]
Take B2: the Standardized EC50, L929 neutralization assay (5-point) in the experiment with recombinant human TNFα came to 3.1 µg/mL. For the same molecule, in experiment [1], the “A450 (AU)” value was 1.04 AU.

B3: TNFα dAb Fc variant T69Q (Fc fusion, name in Kabat numbering)
chain: DIQMTQSPSSLSASVGDRVTITCRASQAIDSYLHWYQQKPGKAPKLLIYSASNLETGVPSRFSGSGSGQDFTLTISSLLPEDFATYYCQQVVWRPFTFGQGTKVEIKRV[human IgG1 Fc with changes left out]
B3: the Standardized EC50, L929 neutralization assay (5-point) with recombinant human TNFα is 2.85 µg/mL. The “A450 (AU)” value in experiment [1] is 1.02 AU.

B4: TNFα dAb Fc variant T69D (Fc fusion, name in Kabat numbering)
chain: DIQMTQSPSSLSASVGDRVTITCRASQAIDSYLHWYQQKPGKAPKLLIYSASNLETGVPSRFSGSGSGDDFTLTISSLLPEDFATYYCQQVVWRPFTFGQGTKVEIKRV[human IgG1 Fc with changes left out]
With B4, the Standardized EC50, L929 neutralization assay (5-point) in the experiment with recombinant human TNFα amounted to 1.34 µg/mL. Moreover, the “A450 (AU)” value in experiment [1] stood at 1.21 AU.

B5: TNFα dAb Fc variant S63Q (Fc fusion, name in Kabat numbering)
chain: DIQMTQSPSSLSASVGDRVTITCRASQAIDSYLHWYQQKPGKAPKLLIYSASNLETGVPSRFQGSGSGTDFTLTISSLLPEDFATYYCQQVVWRPFTFGQGTKVEIKRV[human IgG1 Fc with changes left out]
B5: the Standardized EC50, L929 neutralization assay (5-point) with recombinant human TNFα was 1.33 µg/mL. For the same molecule, in experiment [1], the “A450 (AU)” value came to 0.964 AU.

B6: TNFα dAb Fc variant S67D (Fc fusion, name in Kabat numbering)
chain: DIQMTQSPSSLSASVGDRVTITCRASQAIDSYLHWYQQKPGKAPKLLIYSASNLETGVPSRFSGSGDGTDFTLTISSLLPEDFATYYCQQVVWRPFTFGQGTKVEIKRV[human IgG1 Fc with changes left out]
Consider B6, for which the Standardized EC50, L929 neutralization assay (5-point) with recombinant human TNFα was 5.13 µg/mL. In addition, the “A450 (AU)” value in experiment [1] was determined as 1.02 AU.

B7: TNFα dAb Fc variant Y49A (Fc fusion, name in Kabat numbering)
chain: DIQMTQSPSSLSASVGDRVTITCRASQAIDSYLHWYQQKPGKAPKLLIASASNLETGVPSRFSGSGSGTDFTLTISSLLPEDFATYYCQQVVWRPFTFGQGTKVEIKRV[human IgG1 Fc with changes left out]
Take B7: the Standardized EC50, L929 neutralization assay (5-point) with recombinant human TNFα turned out to be 6.56 µg/mL. Moreover, in experiment [1], the “A450 (AU)” value was 0.455 AU.

B8: TNFα dAb Fc variant S65H (Fc fusion, name in Kabat numbering)
chain: DIQMTQSPSSLSASVGDRVTITCRASQAIDSYLHWYQQKPGKAPKLLIYSASNLETGVPSRFSGHGSGTDFTLTISSLLPEDFATYYCQQVVWRPFTFGQGTKVEIKRV[human IgG1 Fc with changes left out]
As to B8, the Standardized EC50, L929 neutralization assay (5-point) in the experiment with recombinant human TNFα amounted to 3.71 µg/mL. Also, the “A450 (AU)” value in experiment [1] amounted to 1.05 AU.

B9: TNFα dAb Fc variant T69A (Fc fusion, name in Kabat numbering)
chain: DIQMTQSPSSLSASVGDRVTITCRASQAIDSYLHWYQQKPGKAPKLLIYSASNLETGVPSRFSGSGSGADFTLTISSLLPEDFATYYCQQVVWRPFTFGQGTKVEIKRV[human IgG1 Fc with changes left out]
As for B9, the Standardized EC50, L929 neutralization assay (5-point) in the experiment with recombinant human TNFα was 19.6 µg/mL. Moreover, the “A450 (AU)” value in experiment [1] turned out to be 0.916 AU.

B10: TNFα dAb Fc variant T69Y (Fc fusion, name in Kabat numbering)
chain: DIQMTQSPSSLSASVGDRVTITCRASQAIDSYLHWYQQKPGKAPKLLIYSASNLETGVPSRFSGSGSGYDFTLTISSLLPEDFATYYCQQVVWRPFTFGQGTKVEIKRV[human IgG1 Fc with changes left out]
For B10, the Standardized EC50, L929 neutralization assay (5-point) with recombinant human TNFα was 2.49 µg/mL. The “A450 (AU)” value in experiment [1] was found to be 1.03 AU.

B11: TNFα dAb Fc variant T72H (Fc fusion, name in Kabat numbering)
chain: DIQMTQSPSSLSASVGDRVTITCRASQAIDSYLHWYQQKPGKAPKLLIYSASNLETGVPSRFSGSGSGTDFHLTISSLLPEDFATYYCQQVVWRPFTFGQGTKVEIKRV[human IgG1 Fc with changes left out]
B11: in the experiment with recombinant human TNFα, the Standardized EC50, L929 neutralization assay (5-point) amounted to 5.47 µg/mL. Further, the “A450 (AU)” value in experiment [1] was found to be 1.03 AU.

B12: TNFα dAb Fc variant S65L (Fc fusion, name in Kabat numbering)
chain: DIQMTQSPSSLSASVGDRVTITCRASQAIDSYLHWYQQKPGKAPKLLIYSASNLETGVPSRFSGLGSGTDFTLTISSLLPEDFATYYCQQVVWRPFTFGQGTKVEIKRV[human IgG1 Fc with changes left out]
On to B12, for which the Standardized EC50, L929 neutralization assay (5-point) with recombinant human TNFα is 1.01 µg/mL. In addition, the “A450 (AU)” value in experiment [1] is 0.924 AU.

B13: TNFα dAb Fc variant S63K (Fc fusion, name in Kabat numbering)
chain: DIQMTQSPSSLSASVGDRVTITCRASQAIDSYLHWYQQKPGKAPKLLIYSASNLETGVPSRFKGSGSGTDFTLTISSLLPEDFATYYCQQVVWRPFTFGQGTKVEIKRV[human IgG1 Fc with changes left out]
In the case of B13, the Standardized EC50, L929 neutralization assay (5-point) with recombinant human TNFα was 1.33 µg/mL. In addition, the “A450 (AU)” value in experiment [1] amounted to 0.997 AU.

B14: TNFα dAb Fc variant S60K (Fc fusion, name in Kabat numbering)
chain: DIQMTQSPSSLSASVGDRVTITCRASQAIDSYLHWYQQKPGKAPKLLIYSASNLETGVPKRFSGSGSGTDFTLTISSLLPEDFATYYCQQVVWRPFTFGQGTKVEIKRV[human IgG1 Fc with changes left out]
B14: in the experiment with recombinant human TNFα, the Standardized EC50, L929 neutralization assay (5-point) came to 0.867 µg/mL. Moreover, in experiment [1], the “A450 (AU)” value amounted to 1.46 AU.

B15: TNFα dAb Fc variant Y49D (Fc fusion, name in Kabat numbering)
chain: DIQMTQSPSSLSASVGDRVTITCRASQAIDSYLHWYQQKPGKAPKLLIDSASNLETGVPSRFSGSGSGTDFTLTISSLLPEDFATYYCQQVVWRPFTFGQGTKVEIKRV[human IgG1 Fc with changes left out]
Turning to B15, the Standardized EC50, L929 neutralization assay (5-point) in the experiment with recombinant human TNFα was found to be 1.54 µg/mL. The “A450 (AU)” value in experiment [1] came out at 1.23 AU.

B16: TNFα dAb Fc variant S60H (Fc fusion, name in Kabat numbering)
chain: DIQMTQSPSSLSASVGDRVTITCRASQAIDSYLHWYQQKPGKAPKLLIYSASNLETGVPHRFSGSGSGTDFTLTISSLLPEDFATYYCQQVVWRPFTFGQGTKVEIKRV[human IgG1 Fc with changes left out]
B16: in the experiment with recombinant human TNFα, the Standardized EC50, L929 neutralization assay (5-point) is 0.735 µg/mL. The “A450 (AU)” value in experiment [1] came out at 1.49 AU.

B17: TNFα dAb Fc variant T69K (Fc fusion, name in Kabat numbering)
chain: DIQMTQSPSSLSASVGDRVTITCRASQAIDSYLHWYQQKPGKAPKLLIYSASNLETGVPSRFSGSGSGKDFTLTISSLLPEDFATYYCQQVVWRPFTFGQGTKVEIKRV[human IgG1 Fc with changes left out]
Regarding B17, the Standardized EC50, L929 neutralization assay (5-point) with recombinant human TNFα was 8.98 µg/mL. Besides, in experiment [1], the “A450 (AU)” value is 1.04 AU.

B18: TNFα dAb Fc variant S60L (Fc fusion, name in Kabat numbering)
chain: DIQMTQSPSSLSASVGDRVTITCRASQAIDSYLHWYQQKPGKAPKLLIYSASNLETGVPLRFSGSGSGTDFTLTISSLLPEDFATYYCQQVVWRPFTFGQGTKVEIKRV[human IgG1 Fc with changes left out]
Regarding B18, the Standardized EC50, L929 neutralization assay (5-point) with recombinant human TNFα was found to be 0.64 µg/mL. Moreover, the “A450 (AU)” value in experiment [1] is 1.21 AU.

B19: TNFα dAb Fc variant S60A (Fc fusion, name in Kabat numbering)
chain: DIQMTQSPSSLSASVGDRVTITCRASQAIDSYLHWYQQKPGKAPKLLIYSASNLETGVPARFSGSGSGTDFTLTISSLLPEDFATYYCQQVVWRPFTFGQGTKVEIKRV[human IgG1 Fc with changes left out]
For B19, the Standardized EC50, L929 neutralization assay (5-point) with recombinant human TNFα worked out at 0.176 µg/mL. For the same molecule, the “A450 (AU)” value in experiment [1] stood at 1.37 AU.

B20: TNFα dAb Fc variant S63Y (Fc fusion, name in Kabat numbering)
chain: DIQMTQSPSSLSASVGDRVTITCRASQAIDSYLHWYQQKPGKAPKLLIYSASNLETGVPSRFYGSGSGTDFTLTISSLLPEDFATYYCQQVVWRPFTFGQGTKVEIKRV[human IgG1 Fc with changes left out]
Take B20: the Standardized EC50, L929 neutralization assay (5-point) with recombinant human TNFα amounted to 2.02 µg/mL. The “A450 (AU)” value in experiment [1] was 0.923 AU.

B21: TNFα dAb Fc variant S65K (Fc fusion, name in Kabat numbering)
chain: DIQMTQSPSSLSASVGDRVTITCRASQAIDSYLHWYQQKPGKAPKLLIYSASNLETGVPSRFSGKGSGTDFTLTISSLLPEDFATYYCQQVVWRPFTFGQGTKVEIKRV[human IgG1 Fc with changes left out]
B21: the Standardized EC50, L929 neutralization assay (5-point) in the experiment with recombinant human TNFα was 3.49 µg/mL. Further, in experiment [1], the “A450 (AU)” value came to 1.06 AU.

B22: TNFα dAb Fc variant S60Q (Fc fusion, name in Kabat numbering)
chain: DIQMTQSPSSLSASVGDRVTITCRASQAIDSYLHWYQQKPGKAPKLLIYSASNLETGVPQRFSGSGSGTDFTLTISSLLPEDFATYYCQQVVWRPFTFGQGTKVEIKRV[human IgG1 Fc with changes left out]
With B22, the Standardized EC50, L929 neutralization assay (5-point) with recombinant human TNFα was 0.746 µg/mL. Moreover, in experiment [1], the “A450 (AU)” value is 1.12 AU.

B23: TNFα dAb Fc variant S60D (Fc fusion, name in Kabat numbering)
chain: DIQMTQSPSSLSASVGDRVTITCRASQAIDSYLHWYQQKPGKAPKLLIYSASNLETGVPDRFSGSGSGTDFTLTISSLLPEDFATYYCQQVVWRPFTFGQGTKVEIKRV[human IgG1 Fc with changes left out]
B23: the Standardized EC50, L929 neutralization assay (5-point) with recombinant human TNFα was 0.417 µg/mL. The “A450 (AU)” value in experiment [1] is 1.21 AU.

B24: TNFα dAb Fc variant S60P (Fc fusion, name in Kabat numbering)
chain: DIQMTQSPSSLSASVGDRVTITCRASQAIDSYLHWYQQKPGKAPKLLIYSASNLETGVPPRFSGSGSGTDFTLTISSLLPEDFATYYCQQVVWRPFTFGQGTKVEIKRV[human IgG1 Fc with changes left out]
On to B24, for which the Standardized EC50, L929 neutralization assay (5-point) with recombinant human TNFα worked out at 0.895 µg/mL. Besides, the “A450 (AU)” value in experiment [1] was determined as 1.34 AU.
